# Where “and” joins values, the source holds several entries; their conditions need not be identical. Equal entries are not always repeated. Hit rate of the full screen: of about 48,000 compounds, about 1,200 (2.5%) were called active. Roughly 2% stayed inconclusive and do not appear here.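 The calls were made as follows: active = activation of at least 60% and not above a set upper limit (about 1 call in 100 departs from these limits); inconclusive = activation of 40% to 60%, or above that upper limit; inactive = activation under 40%.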 This is one part of the list.
# Target: Probable G-protein coupled receptor 32 (Homo sapiens) (UniProt O75388)
# Assay: qHTS for Agonists of Human Resolvin D1 Receptor DRV1; also: 0% is about no effect
# Settings: CHO-K1 GPR32 beta-arrestin PathHunter luminescence, 90 min; at 76.9 µM; active compounds read high; zero percent set by DMSO-only wells
# In short: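 GPR32 activation in stably transfected CHO-K1 cells, detected as beta-arrestin recruitment by enzyme-fragment complementation. Compound exposure: 90 min, 37 °C.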
# Chain of UniProt O75388 (O75388 whole entry, looked up): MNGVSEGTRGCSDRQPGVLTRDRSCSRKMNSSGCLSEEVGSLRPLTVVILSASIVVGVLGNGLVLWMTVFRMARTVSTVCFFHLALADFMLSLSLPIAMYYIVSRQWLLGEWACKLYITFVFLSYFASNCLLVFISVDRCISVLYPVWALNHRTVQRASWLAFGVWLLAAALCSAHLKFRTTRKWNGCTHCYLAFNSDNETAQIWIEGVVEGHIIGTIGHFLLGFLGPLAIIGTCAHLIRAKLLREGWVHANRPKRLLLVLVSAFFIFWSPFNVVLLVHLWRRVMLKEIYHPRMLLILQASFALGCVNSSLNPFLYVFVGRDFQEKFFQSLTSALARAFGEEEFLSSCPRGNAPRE
row,SMILES,activation
1,C[C@@H]1C[C@H]2[C@@H]3CCC4=CC(=O)C=C[C@]4(C)[C@@]3(Cl)[C@@H](O)C[C@]2(C)[C@@]1(OC(=O)c1ccco1)C(=O)CCl,inactive: 16.4%
2,CCOc1ccc(NC(=O)c2ccc3c(SCC(=O)O)c4c(nc3c2)CCC4)cc1,inactive: -2.43%
3,COc1ccc(OC)c(C2c3c(-c4ccc(Br)cc4)n[nH]c3C(=O)N2c2ccc(Cl)cc2)c1 (stereo not drawn),inactive: -7.08%
4,CCOC(=O)[C@H](CCc1ccccc1)N[C@@H](C)C(=O)N1C(=O)N(C)C[C@H]1C(=O)O,inactive: 0.224%
5,CN1CCCN(C(c2ccccc2)c2ccc(Cl)cc2)CC1 (stereo not drawn),inactive: 0.968%
6,CCOc1ccccc1-c1noc(CSc2nnc(-c3ccccc3)n2-c2cccc(C)c2)n1,inactive: -4.32%
7,CCOC(=O)c1c(Nc2cccc(C(=O)OC)c2)nnc(-c2ccccc2)c1-c1ccccc1,inactive: -6.09%
8,CCOc1ccc(S(=O)(=O)NCC(c2ccco2)S(=O)(=O)c2ccc(C)cc2)cc1 (stereo not drawn),inactive: -14.7%
9,COc1ccccc1C(=O)Nc1ccc(NC(=O)c2cccs2)cc1,inactive: -2.99%
10,O=C(Nc1cccc(C(F)(F)F)c1)N1CCC(CN2CCCCCC2)CC1,inactive: -20.5%
11,CCOc1ccccc1NC(=O)COC(=O)c1cn(CC)c2nc(C)ccc2c1=O,inactive: -2.66%
12,COc1cc(-c2nc3ccccn3c2Nc2ccccc2C)ccc1O,inactive: 18.2%
13,CCOC(=O)c1cnc2c(cnn2CC)c1NN=C(C)C,inactive: 12.1% and inactive: -22%
14,COc1ccccc1NC(=O)N1CCN(c2nnc(C)c3c(C)n(-c4ccc(Cl)cc4)nc23)CC1,inactive: -6.61%
15,COc1ccc(CC(=O)NCCc2sc(-c3ccc(Cl)cc3)nc2C)cc1OC,active: 91.5%
16,CC1CCc2c(sc(NC(=O)Cn3nnc(-c4ccc(C(F)(F)F)cc4)n3)c2C#N)C1 (stereo not drawn),inactive: 15.8%
17,COc1ccccc1CNS(=O)(=O)c1ccc(-c2cc(C(F)(F)F)on2)s1,inactive: -10.6%
18,CC1CCN(c2cc3c(cc2F)c(=O)c(S(=O)(=O)c2cccc(Cl)c2)cn3Cc2ccccc2)CC1,inactive: -9.45%
19,Cn1nc(-c2ccccc2F)c2cc(C(=O)NCc3ccc(Cl)cc3)sc21,inactive: -5.62%
20,COc1ccc(NC(=O)C(=O)NCCc2sc(-c3ccc(Cl)cc3)nc2C)cc1,inactive: 6.78%
21,COc1ccc(C2=C(C(C)=O)Sc3nnc(-c4ccc(C)cc4)n3N2C(C)=O)cc1OC,inactive: -40.4%
22,Clc1ccc(Nc2c(-c3cccs3)nc3ccc(Cl)cn23)cc1,inactive: -30.4%
23,COc1ccc(CCNC(=O)Cn2c(=O)cc(C(F)(F)F)c3c(C)nn(C)c32)cc1OC,inactive: 18.7%
24,CCOC(=O)c1sc2nc(C)n(CC(=O)Nc3cccc(Cl)c3)c(=O)c2c1C,inactive: 14.4%
25,Cc1ccc(C)c(CSC2=NC(C)(C)Nc3ccccc32)c1,inactive: -23.6%
26,COc1ccc(CN(C)S(=O)(=O)c2nnc(NC(=O)C(C)C)s2)cc1OC,inactive: 4.28%
27,CC(=O)c1cccc(NC(=O)CSc2nnc3ccc(-c4ccc(Cl)cc4)nn23)c1,inactive: -9.89%

row,SMILES,activation
1,CCc1cccc(NC(=O)c2cc3c(=O)[nH]c4ccccc4c3n2C)c1,inactive: 49%
2,Cc1ccc(Cl)cc1NC(=O)c1sc2nc(-c3ccccc3)cn2c1C,inactive: -12.4%
3,COc1ccccc1NC(=O)C1=C(C)Nc2nc(SCc3ccccc3F)nn2C1c1cccnc1 (stereo not drawn),inactive: 25.2%
4,O=C(O)c1ccccc1O,inactive: -7.85%
5,C=CCc1c(C)nc2nc(SCC(=O)Nc3cccc(Cl)c3)nn2c1C,inactive: 8.68%
6,CC(C)CN(CC(C)C)c1nc(-c2ccc(Cl)cc2)nc2ccccc12,inactive: 21.5%
7,CCOC(=O)c1c(C)oc2nc(C)nc(N(CC(C)C)CC(C)C)c12,inactive: -16.3%
8,Cc1c(Cl)cccc1NC(=O)c1ccc2c(c1)nnn2C1CCCC1,inactive: 4.24%
9,CO/N=C(/C(=O)N[C@@H]1C(=O)N2C(C(=O)O)=C(Cn3nnc(C)n3)CS[C@H]12)c1csc(N)n1,inactive: 6.16%
10,O=C(NCCCN1CCN(c2ccc(F)cc2)CC1)C1COc2ccccc2C1 (stereo not drawn),inactive: -2.06%
11,COc1ccc(Cl)cc1NC(=O)Cn1c(=O)n(Cc2nc(C)no2)c(=O)c2ccccc21,inactive: -14.4%
12,CCc1ccc(NC(=O)c2ccc3c(=O)n4nc(Nc5ccccc5C)sc4nc3c2)cc1,inactive: -0.139%
13,O=C(CCS(=O)(=O)c1ccccc1)N(Cc1cccnc1)c1nc2c(Cl)cccc2s1,inactive: -26.9%
14,O=C(Nc1ccccc1C(=O)OCc1cc(=O)n2c3c(sc2n1)CCCC3)c1ccccc1,inactive: -12.4%
15,CC(=O)N1c2ccc(S(=O)(=O)N3CCCCCC3)cc2CC1C(=O)NCc1ccccc1 (stereo not drawn),inactive: -0.748%
16,COc1cc2ncnc(Nc3cccc(Cl)c3)c2cc1OC,inactive: 0.813%
17,NNc1nnc(NN)c2ccccc12,inactive: 9.57%
18,COc1cc2c(cc1OC)C(COc1ccc3c(C)cc(=O)oc3c1)N(C(=O)c1cccc(OC)c1OC)CC2 (stereo not drawn),inactive: -11.2%
19,COCCn1c(C)cc(O)c(C(c2ccccc2)N2CCN(CCO)CC2)c1=O (stereo not drawn),inactive: 1.84%
20,CCOc1ccc(NC(=O)N2CCC(CN3CCCCCC3)CC2)cc1,inactive: -10.2%
21,Cc1cccc(N2CCN(C(=O)c3ccc4c(c3)c(C)c(C)n4C)CC2)c1C,inactive: -0.203%
22,Cc1cc(C)cc(NC(=O)CSc2oc(-c3ccco3)nc2S(=O)(=O)c2ccccc2)c1,inactive: -20.8%
23,O=C(Nc1ccccc1OCc1cc(=O)n2ccccc2n1)c1cccc(Br)c1,inactive: -9.85%
24,COc1ccc2c(c1)c1c(c(=O)n(Cc3ccccc3)c(=O)n1CC(=O)Nc1cc(C)cc(C)c1)n2C,inactive: 13.6%
25,Clc1ccc(OCc2nc(-c3ccc(-n4cccc4)cc3)no2)cc1,inactive: -4.17%
26,Cc1ccc(Cl)cc1NC(=O)CCCn1c(=O)c2cccn2c2ccccc21,inactive: -13.7%

# Source: PubChem BioAssay AID1346428 (National Center for Advancing Translational Sciences (NCATS), 2018)
